Data on 45 compounds can be found in article PMC4336329 (PLoS ONE, 2015).

Hit rate of the full screen: of about 310,000 compounds, about 2,200 (0.71%) showed an effect of 50% or more. The effect is printed as a negative number. This is one part of the list.

human ether-à-go-go-related gene (hERG) potassium channel, sequence (Q12809 whole entry, looked up): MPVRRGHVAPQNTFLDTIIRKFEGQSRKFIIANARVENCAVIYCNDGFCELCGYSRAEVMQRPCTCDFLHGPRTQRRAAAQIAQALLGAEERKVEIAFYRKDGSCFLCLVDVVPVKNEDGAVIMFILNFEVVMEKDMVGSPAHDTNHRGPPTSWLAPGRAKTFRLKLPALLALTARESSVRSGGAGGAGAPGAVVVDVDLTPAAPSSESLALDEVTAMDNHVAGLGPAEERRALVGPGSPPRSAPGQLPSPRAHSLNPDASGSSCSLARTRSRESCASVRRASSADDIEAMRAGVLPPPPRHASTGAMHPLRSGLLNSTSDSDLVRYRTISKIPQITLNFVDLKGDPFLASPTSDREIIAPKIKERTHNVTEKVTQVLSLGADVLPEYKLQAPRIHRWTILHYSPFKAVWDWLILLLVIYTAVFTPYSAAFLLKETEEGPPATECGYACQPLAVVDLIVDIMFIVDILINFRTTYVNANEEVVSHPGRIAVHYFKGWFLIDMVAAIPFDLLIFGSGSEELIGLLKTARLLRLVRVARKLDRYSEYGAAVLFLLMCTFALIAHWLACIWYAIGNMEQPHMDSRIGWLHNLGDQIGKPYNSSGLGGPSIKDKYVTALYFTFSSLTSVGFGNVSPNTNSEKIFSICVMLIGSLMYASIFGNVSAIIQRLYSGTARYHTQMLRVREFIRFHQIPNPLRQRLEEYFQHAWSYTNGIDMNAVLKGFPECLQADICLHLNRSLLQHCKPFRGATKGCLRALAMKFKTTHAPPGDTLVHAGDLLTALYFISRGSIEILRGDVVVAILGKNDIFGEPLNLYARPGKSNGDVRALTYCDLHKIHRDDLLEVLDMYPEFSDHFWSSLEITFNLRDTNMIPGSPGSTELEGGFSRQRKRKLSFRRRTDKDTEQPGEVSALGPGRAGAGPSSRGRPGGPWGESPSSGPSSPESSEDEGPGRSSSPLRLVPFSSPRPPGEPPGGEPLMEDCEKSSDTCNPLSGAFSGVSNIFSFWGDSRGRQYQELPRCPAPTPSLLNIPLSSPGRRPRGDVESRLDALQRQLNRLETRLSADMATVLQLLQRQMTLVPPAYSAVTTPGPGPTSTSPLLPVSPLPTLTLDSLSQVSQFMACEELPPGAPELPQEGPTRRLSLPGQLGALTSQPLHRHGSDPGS

This assay concerns the target human ether-à-go-go-related gene (hERG) potassium channel (human, UniProt Q12809). As to the kind of experiment: primary screen, population patch clamp on CHO cells stably expressing hERG.
Consider `O=C1OCCN1c1c(-c2ccccc2)c(N2CCOCC2)nc2ccccc12`, for which the “hERG current change (%, negative = inhibition) at 1uM” value was 4.87%.
As for `O=C(NNC1=NC2(CCCC2)Cc2ccccc21)c1ccncc1`, the “hERG current change (%, negative = inhibition) at 1uM” value was determined as 11%.
To `CC(CCc1ccccc1)NC(=O)c1ccccc1Cl` (stereo not drawn) belongs 3.23%; to `C/C(=N\NC(=O)c1c(C)nc2ccccn12)c1ccco1`, -13.8%; to `C=CCOc1cccc(C2NC(=O)c3ccccc3O2)c1` (stereo not drawn), 16%.
Regarding `O=C(NCc1ccco1)c1csc2c1CCCCC2`, the “hERG current change (%, negative = inhibition) at 1uM” value is recorded as 9.95%.
To `O=C(CSc1nc(-c2ccco2)cc(C(F)(F)F)n1)NC1CCCC1` belongs 3.67%; to `COCCCNC(=O)CN(c1cc(OC)ccc1OC)S(=O)(=O)c1ccccc1`, 11.5%.
Turning to `CN(C(=O)c1nn(C)c2c1CSc1ccccc1-2)c1ccccc1Cl`, the “hERG current change (%, negative = inhibition) at 1uM” value came out at 4.2%.
To `CN(/N=C/c1cccnc1)c1cnc2ccccc2n1` belongs 5.07%.
To `CC(C)(C)NC(=S)N/N=C/c1cc(Br)c(O)c(Br)c1` belongs 18.4%; to `Cn1nc(CC(=O)NCc2cccc3ccccc23)c2ccccc2c1=O`, 11.6%.
To `Cc1ccc[n+](CC(=O)c2ccc(-c3ccccc3)cc2)c1.[Br-]` belongs -22.5%; to `CC(O)C(=O)O.Cc1ccc(CN(CC(O)COc2cccc3[nH]cc(C)c23)C(C)(C)C)cc1` (stereo not drawn), -23.6%; to `O=C(CCc1[nH]c2ccccc2c1Sc1ccccc1)N(CCO)CCO`, 5.76%.
With `Cc1ccc(S(=O)(=O)N(C)C)cc1NC(=O)CN1C(=O)NC2(CCCCCC2)C1=O`, the “hERG current change (%, negative = inhibition) at 1uM” value amounted to 8.1%.
For `C(=N\Nc1nc(Nc2ccccc2)nc(Nc2ccccc2)n1)/c1ccncc1`, the “hERG current change (%, negative = inhibition) at 1uM” value was 4.7%.
To `O=C(O)CC1SC(N/N=C/c2ccc(Br)cc2)NC1=O` (stereo not drawn) belongs 8.66%.
With `COc1ccc(OC(=O)CCCN2C(=O)c3ccccc3C2=O)cc1`, the “hERG current change (%, negative = inhibition) at 1uM” value was 0.666%.
To `COc1ccccc1NC(=O)c1csc(-n2nc(C)cc2C(F)(F)F)n1` belongs 7.24%; to `CC(=O)c1cc(C#N)c(N2CCOCC2)nc1C`, 13.8%.
Turning to `Cc1ccc(N(C(=O)C2COc3ccccc3O2)C(C(=O)NC2CCCCC2)c2cn(C)nc2C)cc1` (stereo not drawn), the “hERG current change (%, negative = inhibition) at 1uM” value is recorded as 11.2%.
To `COc1ccc(C(=O)/C=C2\NCC3c4ccccc4CCN3C2=O)cc1` (stereo not drawn) belongs 8.26%; to `CCN(CC)CCN(C(=O)c1ccc2ccccc2c1)c1nc2ccc(OC)cc2s1.Cl`, 1.06%.
To `COc1ccc(Br)cc1CN(C)CC(=O)NCCc1ccccc1.O=C(O)C(=O)O` belongs 10.6%.
In the case of `NC(=O)CC1(CC(=O)O)CCCCC1`, the “hERG current change (%, negative = inhibition) at 1uM” value amounted to 9.72%.
To `COCc1[nH]nc2c1C(c1ccc(OC)c(OC)c1)C(C#N)=C(N)O2` (stereo not drawn) belongs 10.6%; to `Cc1cccc(C(=O)NCC(=O)NCC(c2cccs2)N2CCOCC2)c1` (stereo not drawn), 5.91%.
To `CCOc1ccc(C(=O)Cc2cc3cccc(OC)c3oc2=O)cc1` belongs 17.4%; to `CC1(C(=O)NNC(=O)c2cccc([N+](=O)[O-])c2)CC1(Br)Br` (stereo not drawn), 16.3%; to `CC(=O)c1ccc2c(c1)OCCOCCOCCOCCOCCO2`, -11.8%.
To `COc1ccc(N2CC(C(=O)Nc3cccc(S(=O)(=O)N4CCCC4)c3)CC2=O)c(OC)c1` (stereo not drawn) belongs 13.8%; to `N#C/C(=C/c1ccc(-c2ccc(Br)cc2)o1)C(=O)NC1CCCCC1`, 9.83%.
In the case of `COc1ccc(-c2cn3cc(Br)cnc3n2)cc1`, the “hERG current change (%, negative = inhibition) at 1uM” value came out at 8.73%.
To `CCn1c(=O)cc(SCC(=O)NCCN2CCN(Cc3ccccc3)CC2)c2ccccc21` belongs 0.451%; to `CCOc1ccc(CNC(=O)C2CCCN(S(C)(=O)=O)C2)cc1OC` (stereo not drawn), 0.57%.
To `COc1ccc(C2C(C(=O)Nc3cccc(C)n3)c3ccccc3C(=O)N2C)cc1` (stereo not drawn) belongs 7.94%; to `O=C(CSc1ncccc1C(=O)O)c1ccccc1`, 3.09%; to `O=C(Cc1ccc([N+](=O)[O-])cc1)Nc1ccc2c(c1)CCC2`, 10.4%.
Regarding `CCOc1ccc(C(=O)O[C@H]2[C@H](Cc3ccccc3)NS(=O)(=O)[C@H]3C[C@@H]4C=C[C@]23O4)cc1`, the “hERG current change (%, negative = inhibition) at 1uM” value is 15.4%.
Take `CCOC(=O)Cc1csc(NC(=O)c2ccc(S(=O)(=O)N3CCCC3)cc2)n1`: the “hERG current change (%, negative = inhibition) at 1uM” value came to 5.76%.
To `Cc1cccc(NC(=O)C2CCN(S(=O)(=O)c3ccc4c(c3)NC(=O)CO4)CC2)c1` belongs 15.2%; to `COc1cc(Nc2c3ccccc3nc3ccccc23)cc(OC)c1OC`, -32.7%; to `COc1ccc(C)cc1NC(=O)NC1CCCc2ccccc21` (stereo not drawn), 0.501%.
To `COc1ccccc1Oc1ccc(S(=O)(=O)N2CCCCC2C)cc1` (stereo not drawn) belongs -0.757%.
